Reference: paper PMC4336329 (PLoS ONE, 2015)
Screen size: about 310,000 compounds; about 14,000 (4.5%) showed an effect of 50% or more. Effects have a minus sign here. The list shows a part of the results.

Biological target: human ether-à-go-go-related gene (hERG) potassium channel (human, UniProt Q12809)
Assay: primary screen, population patch clamp on CHO cells stably expressing hERG
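Further: peak tail current of the secondary pulse compared with the same well before compound.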

human ether-à-go-go-related gene (hERG) potassium channel, sequence (Q12809 whole entry, looked up): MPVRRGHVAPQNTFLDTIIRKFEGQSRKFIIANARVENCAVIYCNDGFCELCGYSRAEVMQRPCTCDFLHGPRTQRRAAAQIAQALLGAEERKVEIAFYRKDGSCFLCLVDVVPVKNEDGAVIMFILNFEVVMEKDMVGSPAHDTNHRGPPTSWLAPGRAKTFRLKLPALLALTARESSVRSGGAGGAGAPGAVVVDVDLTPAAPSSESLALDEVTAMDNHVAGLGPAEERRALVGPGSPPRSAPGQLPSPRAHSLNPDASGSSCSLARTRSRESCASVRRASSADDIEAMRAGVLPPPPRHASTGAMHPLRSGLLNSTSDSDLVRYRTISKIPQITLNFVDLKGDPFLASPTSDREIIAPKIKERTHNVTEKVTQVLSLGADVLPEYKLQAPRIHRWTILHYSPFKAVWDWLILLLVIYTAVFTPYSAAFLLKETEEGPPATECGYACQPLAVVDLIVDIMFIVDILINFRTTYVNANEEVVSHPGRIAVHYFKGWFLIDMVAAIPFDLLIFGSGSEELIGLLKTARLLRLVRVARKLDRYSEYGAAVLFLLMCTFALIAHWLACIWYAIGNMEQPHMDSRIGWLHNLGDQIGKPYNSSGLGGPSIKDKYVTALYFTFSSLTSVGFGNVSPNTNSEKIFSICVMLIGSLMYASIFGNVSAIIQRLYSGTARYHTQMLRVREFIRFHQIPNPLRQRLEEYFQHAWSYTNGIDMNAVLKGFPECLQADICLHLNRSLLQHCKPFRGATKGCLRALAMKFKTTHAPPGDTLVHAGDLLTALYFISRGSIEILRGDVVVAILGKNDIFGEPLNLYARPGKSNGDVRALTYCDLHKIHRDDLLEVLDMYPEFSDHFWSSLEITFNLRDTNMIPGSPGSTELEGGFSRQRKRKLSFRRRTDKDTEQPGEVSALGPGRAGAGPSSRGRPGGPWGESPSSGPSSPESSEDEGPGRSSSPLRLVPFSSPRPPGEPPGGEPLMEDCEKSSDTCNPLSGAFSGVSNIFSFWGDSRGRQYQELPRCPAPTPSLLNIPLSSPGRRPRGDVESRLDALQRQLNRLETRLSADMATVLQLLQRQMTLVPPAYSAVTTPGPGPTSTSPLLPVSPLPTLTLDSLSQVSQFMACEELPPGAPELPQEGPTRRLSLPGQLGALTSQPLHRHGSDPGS

Structure (SMILES)	hERG current change (%, negative = inhibition) at 10uM [%]
NCC(c1ccc(Cl)cc1Cl)c1c[nH]c2ccccc12 (stereo not drawn)	19
Cc1ccc(SCC(=O)Nc2oc(C)c3c(C)n[nH]c(=O)c23)cc1C	-27.6
Cc1ccc(CNC(=O)C2CCCN(S(=O)(=O)c3c(C)[nH]c(=O)[nH]c3=O)C2)cc1 (stereo not drawn)	-1.33
O=C(CN1C(=O)NC2(CCCc3ccccc32)C1=O)Nc1ccccc1OC(F)F (stereo not drawn)	-2.35
COc1ccccc1N1C(=O)c2ccc(C(=O)Nc3cccc(C(C)=O)c3)cc2C1=O	1.69
Cc1ccc(C)c(-n2[nH]c3c4c(ccc3c2=O)C(=O)c2ccccc2C4=O)c1	-3.58
Cc1ccc(C(=O)N2CCN(C(=O)N3CCOCC3)CC2)cc1	-5.64
Cc1ccc(/C=C2\SC(N3CCCC3)=NC2=O)cc1	-22.4
COc1ccccc1C(=O)Nc1ccccc1SC(=O)c1ccccc1OC	24.5
Fc1cccc(-n2cc(-c3ccccc3)c3c(=S)nc[nH]c32)c1	18
CC(C)Oc1cc(C(=O)NC2CCCCC2)c2ccccc2n1	-3.64
O=C(Cc1ccccc1)Nc1ccc(C(=O)NCC2COc3ccccc3O2)cc1 (stereo not drawn)	-1.22
Cc1cccc(-c2cc(C(=O)Nc3cccnc3)c3ccccc3n2)c1	-21.2
O=C(NC(=S)N1CCN(C2CCCCC2)CC1)c1ccccc1	-19.9
Cc1ccc(C(=O)Nc2ncc3c(Cl)cccc3n2)cc1	8.47
COCCSc1nnc(NS(=O)(=O)c2ccccc2)s1	9.74
CCn1c(CCNC(=O)c2ccc(C)cc2)nnc1SCc1ccc(Cl)c(Cl)c1	-45.7
C=CCc1cccc(C=Nc2c[nH]c(=O)[nH]c2=O)c1O	15
COc1cccc(N2C(=O)CC(Nc3ccc(N4CCOCC4)cc3)C2=O)c1 (stereo not drawn)	-1.14
CCNC(=O)NC(=O)C(C)OC(=O)C1CCN(S(=O)(=O)c2ccccc2F)CC1 (stereo not drawn)	-2.35
O=c1cc(C(F)(F)F)nc(SCc2cccc3ccccc23)[nH]1	24
O=C1NC(=O)/C(=C/c2ccc(O)cc2)S1	14.4
N#Cc1ccc(S(=O)(=O)N2CCCN(c3ccc(C(F)(F)F)cn3)CC2)cc1	-73.9

Structure (SMILES)	hERG current change (%, negative = inhibition) at 10uM [%]
O=c1[nH]c(-c2ccccc2)cnc1-c1ccccc1	17
CC(=O)Nc1ccc(NC(=O)c2cccc3c2-c2ccccc2C3=O)cc1	5.91
COCC(=O)NC1CC2CCCC(C1)N2Cc1ccccc1 (stereo not drawn)	-4.63
CC1CCC(C(=O)NC(C(=O)N2CCC(N3CCCCC3)CC2)C(C)C)CC1 (stereo not drawn)	-8.26
Cc1ccc(S(=O)(=O)N(CC(=O)NCc2cccnc2)c2ccc(F)cc2)cc1	-61.2
O=C(NC1CCCC1)c1ccc(CS(=O)(=O)c2ccc(Cl)cc2)o1	-9.03
CC(=O)c1ccc(OC2OCCOC2Oc2ccc(C(C)=O)cc2)cc1 (stereo not drawn)	1.57
O=C(Cc1ccccc1)NCCS(=O)c1ccc(Cl)cc1 (stereo not drawn)	-8.77
CC(NC(=O)C(Cc1ccccc1)N1C(=O)C2C3CCC(C3)C2C1=O)c1ccccc1 (stereo not drawn)	10.8
COc1cc(NC(=O)CCc2nnc3ccc(N4CCCCC4)nn23)cc(OC)c1OC	18.4
CC(=O)N1CCc2[nH]c3ccccc3c2C1	4.55
COc1cc(NC(=O)CN(C)S(=O)(=O)c2cccs2)cc(OC)c1	12.5
C=CCNC(=O)CC(=O)N/N=C/c1ccccc1F	11.9
COc1cccc2cc(C(C)N(CCCN3CCOCC3)C(=O)Nc3ccc(Cl)cc3)oc12 (stereo not drawn)	-46
CCOC(=O)c1[nH]ncc1CN1CCCC(C(=O)c2ccc(OC)cc2C)C1 (stereo not drawn)	-49.4
COc1ccc(OCc2cc(C(=O)N(C)CCC3CCOCC3)no2)c(Cl)c1	-42.1
N/C(=N\OC(=O)Cc1ccccc1[N+](=O)[O-])c1cccnc1	-3.97
COc1ccc(/C=C(/NC(=O)c2ccco2)C(=O)N2CCCC2=O)cc1	-8.68
COc1cc(CNC(=O)C2CCCC2)cc(OC)c1OC	18.6
CC(C)CNC(=O)C1CCCN(S(=O)(=O)c2ccc(-n3cnnn3)cc2)C1 (stereo not drawn)	-0.697
CNC(=O)c1cc2cc(OC)ccc2oc1=O	-5.67
COc1ccc(Cn2c(=O)[nH]c3cc(C(=O)NCCCN4CCCC4)ccc3c2=O)cc1	0.46
Cc1ccnc(SCCn2c(N3CCC(C)CC3)nc3c2c(=O)n(C)c(=O)n3C)n1	-8.64

Structure (SMILES)	hERG current change (%, negative = inhibition) at 10uM [%]
COC(=O)CN(C)C(=O)CC1C(=O)NCCN1CC(C)(C)C (stereo not drawn)	22.8
CC(=O)c1nn(-c2ccc(Br)cc2)cc1C(=O)c1ccccc1	17
O=C(Nc1ccc(-c2csc(-c3ccccc3)n2)cc1)c1ccccc1Cl	12.3
COCCn1c(SCc2cccc(F)c2)nc2cc(C(=O)OC)ccc2c1=O	12
O=C(COC(=O)Cc1ccccc1F)NCCNC(=O)COC(=O)Cc1ccccc1F	-5
Nc1ccc(OC(=O)Nc2ccc(O)cc2)cc1	9.66
CCC(Oc1ccccc1)C(=O)Nc1nnc(S(=O)(=O)Nc2ccccc2)s1 (stereo not drawn)	11.3
O=C(NC12CC3CC(CC(C3)C1)C2)N1CCN(c2nc(-c3ccccc3)cs2)CC1	8.01
CC(C)OC(=O)CSc1nc(C(C)C)nc2ccccc12	14.1
O=C(Nc1ccccc1)C1=C[C@@H](C2CC2)C[C@@H](OCCCCO)O1	-0.335
O=C1CC(c2cccc([N+](=O)[O-])c2)c2cc3c(cc2N1)CCC3 (stereo not drawn)	4.53
COC(=O)c1cc(S(=O)(=O)N2CCN(c3ccccc3OC)CC2)cn1C	11.8
CC(C)(CN1CCC(Cc2ccccc2)CC1)NS(=O)(=O)c1ccccc1.O=C(O)C(=O)O	-60.8
O=C1CN2NC(=S)N(c3ccc(Cl)cc3)C2=CN1c1ccc(Cl)cc1	20.5
Cc1c(Br)c([N+](=O)[O-])nn1CCCC(=O)N1CCN(c2ccccc2)CC1	-32.4
Cc1cc(C)cc(NC(=O)CCCn2nc(C)c3c(C)n(-c4ccccc4)nc3c2=O)c1	-4.07
Cc1cccc2cc(CN(Cc3ccccc3)C(=O)c3cccc(F)c3)c(Cl)nc12	-2.31
Cc1onc(NC(=O)NC(=O)c2c(Cl)cccc2Cl)c1Br	-36.4
COC(=O)c1ccccc1NC(=O)CSc1ccccc1	-13.4
COc1ccccc1NC(=O)COc1ccc(/C=N/n2cnnc2)cc1OC	8.86
CC(=O)Nc1ccc(S(=O)(=O)NCC(=O)NCCc2ccc(S(N)(=O)=O)cc2)cc1	27
CCn1c(CCNC(=O)c2cccs2)nnc1SCC(=O)c1ccc(OC)cc1	7.05
Cc1cc(O)c(C(=O)c2ccccc2C(=O)O)cc1C	-3.51

Structure (SMILES)	hERG current change (%, negative = inhibition) at 10uM [%]
O=C(/C=C/c1ccc(Cl)cc1)c1cccnc1	-21.5
NP(=O)(OCCCCc1ccccc1)Oc1ccccc1Cl (stereo not drawn)	-11.2
Cc1c(C(=O)OCC(=O)NC2CCCCC2)oc2ccccc12	-7.61
Cc1cc(C)n2c(SCCN3C(=O)c4ccccc4C3=O)nnc2n1	1.27
CCOC(=O)C1CCN(C(=O)c2ccc(OCC(=O)N3CCOCC3)c(OC)c2)CC1	11.7
O=C(NCCCN1CCOCC1)c1ccc2c(c1)N(Cc1c(F)cccc1Cl)C(=O)c1ccccc1S2	-44.7
O=[N+]([O-])c1ccc(OCn2cncn2)cc1	10.9
Cc1sc(N)nc1-c1cccs1	20.2
O=C(c1ccc(Cl)cc1)N1CCC(C(=O)N2CCN(c3ncccn3)CC2)CC1	-56.6
CNC(C)C#Cc1ccc2c(=O)c3ccccc3oc2c1 (stereo not drawn)	1.2
CCN(CC)C(=S)SCC(=O)Nc1ncc2c(n1)CCCC2=O	-8.43
CN(C)S(=O)(=O)c1ccc(C(=O)NCc2ccc3[nH]c4c(c3c2)CCCC4)cc1	1.15
CC(C)(C)OC(=O)n1cc(/C=N/NC(=O)c2ccco2)c2ccccc21	13.7
O=C(CCCCCn1nnc2ccccc2c1=O)Nc1ccccc1F	6.92
Cn1c(NC(=O)c2ccccc2Br)cc(=O)n(C)c1=O	5.9
CCC(CC)C(=O)c1c[nH]c(C(=O)NCCCn2ccnc2)c1	2.51
Cc1cc2nc(N)sc2cc1C	7.23
C[C@H]1CN=C(Nc2ccccc2)N1CC1CCCCCC1	-24.5
OC(CCNCCc1c[nH]c2ccccc12)C(F)(F)Cl (stereo not drawn)	-6.51
COc1cccc(C(=O)Nc2ccc(C)cc2)c1	-4.91
O=c1[nH][nH]c(-c2ccccc2)c1C=Nc1ccc(Cl)cc1	-23
